Reference: PubChem BioAssay (NCI)
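Cells were grown in 96-well plates and exposed to each compound for 48 hours at five concentrations; endpoints were interpolated linearly between bracketing concentrations, or set to the highest concentration if not reached. GI50 = concentration required for 50% inhibition of growth. TGI is the concentration that stops growth completely.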 Bridge positions count the residues as written; N and C are the ends. Square brackets hold non-standard residues; d marks the D form. Peptide text beside a SMILES is read from it. * marks the point of attachment. ξ: configuration not given here. ξDab(CH2SO3H) = NC(CCNCS(=O)(=O)O)C(=O)O; Heptanoyl(6-Me) = CC(C)CCCCC(=O)*; Dab = NCC[CH](N)C(=O)O

System: NCI-H322M lung
Test: NCI-60 cell line screen, 48 h

Q: For `COc1ccc2cc(C(=O)/C=C/c3ccc(N(C)C)cc3)ccc2c1`, which GI50 is on record?
A: > 100 µM

Q: What about the TGI of the same compound?
A: > 100 µM

Q: For `C=C(C)[C@@]1(O)CCCC[C@@H]1CC(Sc1ccccc1)Sc1ccccc1`, which TGI is on record?
A: 32.8 µM

Q: `OCCCNc1ncnc2[nH]ncc12` was tested. Which TGI did it give?
A: > 100 µM

Q: With `COc1cc2cc(C(=O)Nc3cc4n(n3)-c3ccccc3C4)[nH]c2c(OC)c1OC` as the compound, how does the TGI read?
A: 15.4 µM

Q: Which TGI does the source give for `CC(N)(/C=C/c1ccccc1)C(=O)O` (stereo not given) here?
A: > 100 µM

Q: How did the TGI turn out when `OCCCNc1ccnc2cc(Cl)ccc12` was run?
A: > 100 µM

Q: Which results are given for `COc1ccc2c(c1)CC[C@@H]1[C@@H]2CC[C@]2(C)c3c(cc(C(=O)O)c4sccc34)C[C@@H]12`?
A: GI50: 19.4 µM; TGI: 52.6 µM

Q: Which TGI does the source give for `O=C1NC(=O)C(C(=O)C(=O)Nc2ccc(Cl)cc2Cl)C(=O)N1` here?
A: > 100 µM

Q: What does the source list for `COc1cccc(/C=N/NC(=O)c2ccccc2N2CCCC2)c1O`?
A: GI50: 4.67 µM; TGI: > 100 µM

Q: `O=C(O)c1cc2c(cc1CC(Cc1ccc3c(c1)CCCC3)C(=O)O)CCCC2` (stereo not given) was tested. Which TGI did it give?
A: > 100 µM

Q: `COC(=O)C(C)(C)[C@@H]1OC(=O)N(S(=O)(=O)c2c(C)cc(C)cc2C)[C@H]1C(C)C` was tested. Which TGI did it give?
A: > 100 µM

Q: What does the source list for `[Cl][Hg][c]1ccc(Cl)s1`?
A: GI50: 14.8 µM; TGI: 28.7 µM

Q: For `COc1ccc(-c2cc(-c3ccc(O)cc3O)c(C#N)c(=O)[nH]2)cc1`, which TGI is on record?
A: 84.1 µM

Q: What does the source list for `CC[C@@H](C(=O)[C@H](C)[C@H](O)[C@@H](C)[C@H]1O[C@H]([C@@H](CC)C(=O)N(CC)CC)CC[C@H]1C)C1O[C@]2(C=C[C@@H](O)[C@]3(CC[C@@](C)([C@H]4CC[C@](O)(CC)[C@H](C)O4)O3)O2)[C@H](C)C[C@@H]1C` (stereo not given in full)?
A: GI50: 2.91 µM; TGI: 10.8 µM

Q: How did the TGI turn out when `O=C1[C@@H]2C(c3ccccc3[N+](=O)[O-])=[N+](c3ccccc3)O[C@@H]2C(=O)N1c1ccc(Cc2ccc(N3C(=O)[C@H]4C(c5ccccc5[N+](=O)[O-])=[N+](c5ccccc5)O[C@H]4C3=O)cc2)cc1` was run?
A: > 100 µM

Q: Which GI50 does the source give for `COc1cc2ncnc(Nc3cccc(Cl)c3F)c2cc1OC(=O)N1CCN(C)C[C@H]1C` here?
A: 0.111 µM

Q: And the TGI?
A: > 61.8 µM

Q: With `COC(=O)c1ccccc1CC(Cc1ccc2c(c1)CCC2)C(=O)OC` (stereo not given) as the compound, how does the TGI read?
A: > 100 µM

Q: Which TGI does the source give for `Nc1nc(Cl)cc(NCC(O)CO)n1` (stereo not given) here?
A: > 100 µM

Q: For `COC(=O)C1=CO[C@@H](OC2OC(CO)C(O)C(O)C2O)[C@H]2[C@@H](C)[C@@H](O)[C@@H](O)[C@@H]12` (stereo not given in full), which TGI is on record?
A: > 100 µM

Q: With `COC(=O)[C@H](Cc1c[nH]c2ccccc12)NP(=O)(O)OC[C@H]1O[C@@H](n2cc(C)c(=O)[nH]c2=O)C[C@@H]1N=[N+]=[N-]` as the compound, how does the TGI read?
A: > 100 µM

Q: With `C=C1C(=O)O[C@H]2C[C@@H]1CC/C(C)=C/CC/C(C)=C/CC[C@@]2(C)O` as the compound, how does the GI50 read?
A: > 100 µM

Q: And the TGI?
A: > 100 µM

Q: How did the TGI turn out when `Clc1ccc(C(Cc2cccc(Cl)c2)c2c(Cl)nc(N3CCNCC3)nc2Cl)cc1` (stereo not given) was run?
A: 30.5 µM

Q: `O=C(O)COc1ccc(C(=O)/C(SS/C(C(=O)c2ccc(OCC(=O)O)c(Cl)c2Cl)=C2\C=C(c3ccc(Cl)cc3)SS2)=C2/C=C(c3ccc(Cl)cc3)SS2)c(Cl)c1Cl` was tested. Which TGI did it give?
A: > 100 µM

Q: With `O=C(OCc1ccc([N+](=O)[O-])cc1)N1c2ccccc2[C@@]23O[C@]24CCC[C@H]3C#C/C=C\C#C[C@H]14` as the compound, how does the TGI read?
A: > 100 µM

Q: With `O=C1/C(=C/c2ccco2)N=C2Sc3c(nc[nH]c3=O)N12` as the compound, how does the TGI read?
A: > 100 µM

Q: For `COc1cc(/C=N\c2nc(-c3ccc(NS(=O)(=O)c4ccc(Cl)c(OC)c4)cc3)cs2)ccc1O`, which TGI is on record?
A: > 100 µM

Q: `NC(=O)c1ncn(C2OC(CO)C(O)C2O)c1NC=O` (stereo not given) was tested. Which TGI did it give?
A: > 100 µM

Q: What does the source list for `CN1CCC2(CC1)NC(=O)c1c(c3ccc(Cl)c(Cl)c3n1C)C2C#N` (stereo not given)?
A: GI50: 8.06 µM; TGI: 26.5 µM

Q: How did the TGI turn out when `CC1(C)CC[C@]2(C(=O)O)CC[C@]3(C)C(=CC[C@@H]4[C@@]5(C)C[C@H](O)[C@H](O)[C@@](C)(C(=O)O)[C@@H]5CC[C@]43C)[C@@H]2C1` was run?
A: > 100 µM

Q: Which GI50 does the source give for `O=[N+]([O-])c1ccc(C2CC(c3ccccc3)=Nc3ccccc3S2)cc1` (stereo not given) here?
A: > 100 µM

Q: What about the TGI of the same compound?
A: > 100 µM

Q: Which GI50 does the source give for `Cn1nc(C(F)(F)F)cc1-c1c[nH]c(OCc2ccc(Cl)cc2)c(-c2ccc(Cl)c(C(F)(F)F)c2)c1=O` here?
A: 1.4 µM

Q: What about the TGI of the same compound?
A: > 50 µM

Q: Which TGI does the source give for `CCOC(=O)Cc1csc(Nc2ccc(OCC)cc2)n1` here?
A: > 100 µM

Q: `NC1CCCCC1N.O=[Se]([O-])[O-].[Pt+4]` (stereo not given) was tested. Which GI50 did it give?
A: 0.914 µM

Q: And the TGI?
A: > 36.9 µM

Q: `COC(=O)C1=COC(OC2OC(CO)C(O)C(O)C2O)C2C3CN4CCc5c([nH]c6ccccc56)C4(CC12)O3` (stereo not given) was tested. Which TGI did it give?
A: > 100 µM

Q: How did the TGI turn out when `O[C@H]1[C@H](O)[C@@H](O)[C@@]2(O)CC[C@@H]1N2` was run?
A: > 100 µM

Q: How did the TGI turn out when `CCOC(=O)c1cc2c3c(c(C(C)=O)c(O)c2[nH]1)N(C(C)=O)CC3` was run?
A: > 100 µM

Q: `Cc1occc1C(=S)Nc1ccc(Cl)c(/C=N/OC(C)(C)C)c1` was tested. Which TGI did it give?
A: 39.8 µM

Q: With `CCOC(=O)C1C(C)C2(C#N)C(=N)OC1(C)C2(C#N)C#N` (stereo not given) as the compound, how does the TGI read?
A: > 100 µM

Q: Which results are given for `CCC(C)C1NC(=O)C(CCNCS(=O)(=O)O)NC(=O)C(NC(=O)C(CCNCS(=O)(=O)O)NC(=O)C(NC(=O)C(CCNCS(=O)(=O)O)NC(=O)CCCCC(C)C)C(C)O)CCNC(=O)C(C(C)O)NC(=O)C(CCNCS(=O)(=O)O)NC(=O)C(CCNCS(=O)(=O)O)NC(=O)C(C(C)CC)NC1=O` (stereo not given) ({Heptanoyl(6-Me)}-[ξDab(CH2SO3H)]T[ξDab(CH2SO3H)][Dab][ξDab(CH2SO3H)]II[ξDab(CH2SO3H)][ξDab(CH2SO3H)]T; lactam 4-C; configuration not given here)?
A: GI50: 17.6 µM; TGI: > 25 µM

Q: What does the source list for `C[C@@H](NC(=O)/C(C#N)=C/c1ccc([N+](=O)[O-])cc1)c1ccccc1`?
A: GI50: 2.74 µM; TGI: 7.52 µM

Q: Which TGI does the source give for `C=CCN1C[C@H](C)N([C@@H](c2ccc(C(=O)N3CCCCC3)cc2)c2cccc(OC)c2)C[C@H]1C` here?
A: > 100 µM

Q: How did the GI50 turn out when `COc1cc(/C(=C2/O[C@@H]([C@H]3COC(C)(C)O3)[C@H]3OC(C)(C)O[C@@H]23)c2ccc3ccccc3c2)cc(OC)c1OC` was run?
A: 5.74 µM

Q: And the TGI?
A: > 100 µM

Q: `C(=N\Nc1ccccc1)/c1nc2ccccc2nc1/C=N/Nc1ccccc1` was tested. Which TGI did it give?
A: > 60.5 µM

Q: How did the TGI turn out when `O=C(O)c1cc(=O)c2c(OCC(O)COc3cccc4oc(C(=O)O)cc(=O)c34)cccc2o1` was run?
A: > 100 µM

Q: Which TGI does the source give for `O=c1[nH]nc(Cc2ccccc2)n1CCCl` here?
A: > 100 µM

Q: How did the TGI turn out when `Cc1ccc(N=NC(=Nc2ccc(Cl)cc2)c2ccc(N(CCC#N)CCC#N)cc2)cc1` was run?
A: > 100 µM

Q: Which TGI does the source give for `COc1cc2c(cc1OC)CC(=O)Nc1cc(OC)c(OC)cc1CC2` here?
A: > 100 µM

Q: With `Cc1ccc(-c2cc3c4c(nc5ccccc53)C(=O)c3cccnc3-c4n2)cc1` as the compound, how does the GI50 read?
A: 3.73 µM

Q: What about the TGI of the same compound?
A: 12 µM

Q: `CCCCC(C(=O)CCC(=O)Nc1ccc(Cl)c(Cl)c1)C(=O)C(C)C` (stereo not given) was tested. Which TGI did it give?
A: > 100 µM

Q: For `Cc1ccc([N+](=O)[O-])cc1S(=O)(=O)Nc1ccc(C2=NOC(c3cccs3)C2)cc1` (stereo not given), which TGI is on record?
A: 89 µM

Q: For `CC(=O)OCC1OC(n2c3c(cc(C#N)c2=S)CCC3)C(OC(C)=O)C(OC(C)=O)C1OC(C)=O` (stereo not given), which TGI is on record?
A: > 100 µM

Q: How did the GI50 turn out when `CCN1C(=O)N(CC)C2C1NN=c1s/c(=C\c3ccco3)c(=O)n12` (stereo not given) was run?
A: 0.877 µM

Q: What about the TGI of the same compound?
A: > 100 µM

Q: With `Cc1nc(N2N=C(c3ccc(Cl)cc3)CCC2=O)sc1[N+](=O)[O-]` as the compound, how does the TGI read?
A: > 100 µM

Q: Which TGI does the source give for `Cc1cc(C)n(-c2ccnc3cc(Cl)ccc23)n1` here?
A: > 100 µM

Q: How did the TGI turn out when `COc1cc(O)c2c(c1)O[C@@H]1OCC[C@H]21` was run?
A: > 100 µM

Q: With `COc1ccc(Cn2cc3c(c2-c2ccccc2)CCc2cnoc2-3)cc1OC` as the compound, how does the GI50 read?
A: 9.74 µM

Q: What about the TGI of the same compound?
A: > 100 µM

Q: How did the TGI turn out when `COc1ccc(OC)c(C2CCc3c(cnc4nc(N)nc(N)c34)C2)c1` (stereo not given) was run?
A: 17.2 µM

Q: `NNC(=O)CCSc1ccccc1` was tested. Which TGI did it give?
A: > 100 µM

Q: Which TGI does the source give for `C/C(CC(=O)Nc1cc(C)ccc1C)=N/N=C(N)N` here?
A: > 100 µM

Q: Which TGI does the source give for `Cn1ncc2c(Nc3cccc(Cl)c3)nc(Nc3cccc(Cl)c3)nc21` here?
A: 45.3 µM

Q: With `COCCNc1ccc2c3c(cccc13)C(=O)N(CCN(C)C)C2=O` as the compound, how does the GI50 read?
A: 6 µM

Q: And the TGI?
A: > 25 µM

Q: How did the TGI turn out when `O=C(c1nc2ccccc2[nH]c1=O)C(O)c1ccco1` (stereo not given) was run?
A: > 100 µM
